# Where two headings read alike, the source gives them in different places. These are yes or no findings as the source states them, for the method shown. Binding seen in cells or lysates may run through a third protein. Some entries that bind do so weakly or less than the wild type.
# Protein sequences, listed by entry. Tags and fused reporters are not part of them. Residues count along the entry.
# UniProt P09758, residues 27-323: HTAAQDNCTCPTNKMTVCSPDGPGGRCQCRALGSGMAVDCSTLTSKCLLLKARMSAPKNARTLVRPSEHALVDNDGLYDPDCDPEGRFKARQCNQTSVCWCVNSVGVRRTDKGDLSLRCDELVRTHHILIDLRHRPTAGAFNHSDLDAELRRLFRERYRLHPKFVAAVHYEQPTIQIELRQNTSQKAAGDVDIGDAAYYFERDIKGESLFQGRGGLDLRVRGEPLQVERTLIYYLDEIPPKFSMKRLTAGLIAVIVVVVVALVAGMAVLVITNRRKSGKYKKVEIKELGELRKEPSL
# UniProt O95832: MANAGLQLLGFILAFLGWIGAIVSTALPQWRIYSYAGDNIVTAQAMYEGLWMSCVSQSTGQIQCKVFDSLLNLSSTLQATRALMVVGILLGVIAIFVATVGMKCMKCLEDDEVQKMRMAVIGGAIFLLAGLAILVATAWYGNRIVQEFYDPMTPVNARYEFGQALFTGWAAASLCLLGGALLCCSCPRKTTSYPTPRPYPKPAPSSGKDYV
# T1: occludin (OCLN) (human (endogenous in Huh7.5)) (UniProt Q16625)
# T1 sequence: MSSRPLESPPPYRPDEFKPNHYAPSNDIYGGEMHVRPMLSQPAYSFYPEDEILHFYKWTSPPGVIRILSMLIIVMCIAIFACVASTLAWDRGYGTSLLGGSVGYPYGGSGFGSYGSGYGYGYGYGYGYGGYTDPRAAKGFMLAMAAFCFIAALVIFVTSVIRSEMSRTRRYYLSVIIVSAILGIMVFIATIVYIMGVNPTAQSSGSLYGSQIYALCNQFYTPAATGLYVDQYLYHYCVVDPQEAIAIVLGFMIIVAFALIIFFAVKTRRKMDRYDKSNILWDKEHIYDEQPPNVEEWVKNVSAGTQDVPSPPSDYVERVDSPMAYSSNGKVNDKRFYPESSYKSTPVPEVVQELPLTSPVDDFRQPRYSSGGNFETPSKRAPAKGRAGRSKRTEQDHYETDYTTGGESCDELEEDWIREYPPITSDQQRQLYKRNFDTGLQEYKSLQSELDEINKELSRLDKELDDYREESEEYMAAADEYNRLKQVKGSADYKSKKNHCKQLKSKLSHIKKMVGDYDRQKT
# B1: occludin (OCLN) (protein, UniProt Q16625 1-522)
# chain: T1 sequence
# B2: retinoblastoma protein (protein, UniProt P06400 1-928)
# chain: MPPKTPRKTAATAAAAAAEPPAPPPPPPPEEDPEQDSGPEDLPLVRLEFEETEEPDFTALCQKLKIPDHVRERAWLTWEKVSSVDGVLGGYIQKKKELWGICIFIAAVDLDEMSFTFTELQKNIEISVHKFFNLLKEIDTSTKVDNAMSRLLKKYDVLFALFSKLERTCELIYLTQPSSSISTEINSALVLKVSWITFLLAKGEVLQMEDDLVISFQLMLCVLDYFIKLSPPMLLKEPYKTAVIPINGSPRTPRRGQNRSARIAKQLENDTRIIEVLCKEHECNIDEVKNVYFKNFIPFMNSLGLVTSNGLPEVENLSKRYEEIYLKNKDLDARLFLDHDKTLQTDSIDSFETQRTPRKSNLDEEVNVIPPHTPVRTVMNTIQQLMMILNSASDQPSENLISYFNNCTVNPKESILKRVKDIGYIFKEKFAKAVGQGCVEIGSQRYKLGVRLYYRVMESMLKSEEERLSIQNFSKLLNDNIFHMSLLACALEVVMATYSRSTSQNLDSGTDLSFPWILNVLNLKAFDFYKVIESFIKAEGNLTREMIKHLERCEHRIMESLAWLSDSPLFDLIKQSKDREGPTDHLESACPLNLPLQNNHTAADMYLSPVRSPKKKGSTTRVNSTANAETQATSAFQTQKPLKSTSLSLFYKKVYRLAYLRLNTLCERLLSEHPELEHIIWTLFQHTLQNEYELMRDRHLDQIMMCSMYGICKVKNIDLKFKIIVTAYKDLPHAVQETFKRVLIKEEEYDSIIVFYNSVFMQRLKTNILQYASTRPPTLSPIPHIPRSPYKFPSSPLRIPGGNIYISPLKSPYKISEGLPTPTKMTPRSRILVSIGESFGTSEKFQKINQMVCNSDRVLKRSAEGSNPPKPLKKLRFDIEGSDEADGSKHLPGESKFQQKLAEMTSTRTRMQKQKMNDSMDTSNKEEK
# Experiments:
# [1] = biological target: tumor-associated calcium signal transducer 2 (TACSTD2), in Huh7.5 cells stably overexpressing TACSTD2 (UniProt P09758); assay: co-IP; lysates of parental and TACSTD2-overexpressing Huh7.5 cells (Pierce IP lysis buffer: 25 mM Tris-HCl pH 7.4, 150 mM NaCl, 1% NP-40, 1 mM EDTA, 5% glycerol; protease inhibitor, PhosSTOP) immunoprecipitated with anti-TACSTD2 antibody or control IgG at 4°C overnight, protein-G sepharose, five washes, eluates deglycosylated, immunoblot
# [2] = biological target: tumor-associated calcium signal transducer 2 (TACSTD2), endogenous in parental Huh7.5 cells (human (endogenous in Huh7.5)) (UniProt P09758); assay: as above
# [3] = biological target: T1, occludin (OCLN) (human (endogenous in Huh7.5)); assay: co-IP; reciprocal: lysates of parental and TACSTD2-overexpressing Huh7.5 cells immunoprecipitated with anti-OCLN antibody or control IgG at 4°C overnight, protein-G sepharose, eluates deglycosylated; total TACSTD2 detected with biotinylated anti-TACSTD2, phosphorylated TACSTD2 with anti-PKC substrate-specific antibody
# [4] = biological target: claudin-1 (CLDN1) (human (endogenous in Huh7.5)) (UniProt O95832); assay: co-IP; reciprocal: lysates of parental and TACSTD2-overexpressing Huh7.5 cells immunoprecipitated with anti-CLDN1 antibody or control IgG at 4°C overnight, protein-G sepharose, eluates deglycosylated; total TACSTD2 detected with biotinylated anti-TACSTD2, phosphorylated TACSTD2 with anti-PKC substrate-specific antibody
# [5] = biological target: tumor-associated calcium signal transducer 2 (TACSTD2), in Huh7.5 cells stably overexpressing TACSTD2 (UniProt P09758); assay: co-IP; lysates of parental and TACSTD2-overexpressing Huh7.5 cells (Pierce IP lysis buffer: 25 mM Tris-HCl pH 7.4, 150 mM NaCl, 1% NP-40, 1 mM EDTA, 5% glycerol; protease inhibitor, PhosSTOP) immunoprecipitated with anti-TACSTD2 antibody or control IgG at 4°C overnight, protein-G sepharose, five washes, eluates deglycosylated, immunoblot; remark: listed apart in the source
# [6] = biological target: tumor-associated calcium signal transducer 2 (TACSTD2), endogenous in parental Huh7.5 cells (human (endogenous in Huh7.5)) (UniProt P09758); assay: as above; remark: listed apart in the source
Molecule,binding [3],binding [4],binding [5],binding [6],also measured
claudin-1 (CLDN1) (from UniProt O95832 1-211),,,,,binding [1]: binds; binding [2]: binds
"tumor-associated calcium signal transducer 2 (TACSTD2), in Huh7.5 cells stably overexpressing TACSTD2 (from UniProt P09758 27-323)",binds,binds,,,
"tumor-associated calcium signal transducer 2 (TACSTD2), endogenous in parental Huh7.5 cells (from UniProt P09758 27-323)",binds,binds,,,
B1,,,binds,binds,
B2,,,no binding,no binding,

# From PMC5882150
